Assay [1] concerns the target p15 fragment of Caspase-8-cleaved mouse Bid (tBid) (mouse) (UniProt P70444). Kind of assay: SEC; Superdex 75 column, SMART system; soluble proteins, no detergent, without DTT; both purified. In general terms: In gel filtration, larger molecules generally elute earlier.
The target is the same in assay [2]. Description: SEC; Superdex 75 column; no detergent, after addition of DTT or after spin labeling; data not shown; both purified.
The target of assay [3] is p15 fragment of spin labeled cleaved mouse Bid (cBidR1), MTSSL on C126 (mouse) (UniProt P70444). Description: DEER (pulse EPR); spin labels on C30 (p7) and C126 (p15); with 0.5% DDM; protein 40 µM; recorded at 50 K; both purified.
Assay [4] shares this target. Description: cw EPR and SDS PAGE of supernatant and washed pellet after incubation with liposomes; cBidR1 (110 µM) incubated for 3 h at 37°C with ECL or MOML liposomes (20 mg/ml lipids), then centrifuged; both purified.
Assay [5] concerns the target p7 fragment of spin labeled cleaved mouse Bid (cBidR1), MTSSL on C30 (mouse) (UniProt P70444). Description: DEER (pulse EPR); spin labels on C30 (p7) and C126 (p15); after removal of 2% OG by extensive dialysis; protein 180 µM; recorded at 50 K; both purified.
Assay [6] has as its target p15 fragment of spin labeled cleaved mouse Bid (cBidR1), MTSSL on C126 (mouse) (UniProt P70444). Described as above.
Assay [7] has the same target. Description: SEC; Superdex 75 column; no detergent, after addition of DTT or after spin labeling; data not shown; both purified.
Assay [8] has the same target. Kind of assay: intrinsic tryptophan and tyrosine fluorescence spectra; excitation at 280 nm; protein 0.5 µM; without detergent, with 2% OG, and after removal of the detergent by extensive dialysis; both purified.
Assay [9] addresses T1, p15 fragment of spin labeled cleaved mouse Bid (cBidR1), MTSSL on C126 (mouse), P70444.
T1 chain: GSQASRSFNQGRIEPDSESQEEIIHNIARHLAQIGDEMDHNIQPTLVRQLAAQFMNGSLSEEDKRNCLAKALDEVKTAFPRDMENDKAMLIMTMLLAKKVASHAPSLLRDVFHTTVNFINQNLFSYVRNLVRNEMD
Kind of assay: DEER (pulse EPR); spin labels on C30 (p7) and C126 (p15); after removal of 2% OG by extensive dialysis; protein 180 µM; recorded at 50 K; both purified. The note with it: remark: other sources report otherwise.

Assay [10] has as its target T2, p15 fragment of Caspase-8-cleaved mouse Bid (tBid) (mouse), P70444.
T2 chain: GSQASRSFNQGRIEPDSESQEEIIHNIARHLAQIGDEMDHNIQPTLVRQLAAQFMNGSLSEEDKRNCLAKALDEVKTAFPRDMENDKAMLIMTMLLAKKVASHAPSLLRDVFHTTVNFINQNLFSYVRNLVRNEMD
Kind of assay: SEC; Superdex 75 column, SMART system; soluble protein, no detergent, with DTT; both purified. The note with it: remark: other sources report otherwise.

Assay [11] deals with T2, p15 fragment of Caspase-8-cleaved mouse …. Description: SEC; Superdex 75 column, SMART system; soluble proteins, no detergent, without DTT; both purified. The note with it: remark: other sources report otherwise.

No constants are given. Whether binding was seen depends on the method and setting. Some entries that bind do so weakly or less than the wild type.

B1: p7 fragment of Caspase-8-cleaved mouse Bid (protein)
chain: MDSEVSNGSGLGAEHITDLLVFGFLQSSGCTRQELEVLGRELPVQAYWEADLEDELQTD
Turning to B1, the binding entry in [1] and in [2] was “binds” each time.

B2: p7 fragment of spin labeled cleaved mouse Bid (cBidR1), MTSSL on C30 (domain or fragment, UniProt P70444 1-59)
chain: MDSEVSNGSGLGAEHITDLLVFGFLQSSGCTRQELEVLGRELPVQAYWEADLEDELQTD
modifications: MTSSL spin label (R1) on C30
On to B2, for which the binding result in assay [3] is recorded as “binds”; in [4], “binds”; in assay [5] it was “no binding”; in assay [6] it was “binds”; in assay [7] it was “binds”; in assay [8] it was “binds”.

B3: p15 fragment of spin labeled cleaved mouse Bid (cBidR1), MTSSL on C126, P70444 60-195 (domain or fragment)
chain: GSQASRSFNQGRIEPDSESQEEIIHNIARHLAQIGDEMDHNIQPTLVRQLAAQFMNGSLSEEDKRNCLAKALDEVKTAFPRDMENDKAMLIMTMLLAKKVASHAPSLLRDVFHTTVNFINQNLFSYVRNLVRNEMD
modifications: here or on the partner: MTSSL spin label (R1) on C126; MTSSL spin label (R1) on C126
On to B3, for which, in assay [9], the binding entry was “no binding”.

B4: p15 fragment of Caspase-8-cleaved mouse Bid (tBid), P70444 60-195 (domain or fragment)
chain: GSQASRSFNQGRIEPDSESQEEIIHNIARHLAQIGDEMDHNIQPTLVRQLAAQFMNGSLSEEDKRNCLAKALDEVKTAFPRDMENDKAMLIMTMLLAKKVASHAPSLLRDVFHTTVNFINQNLFSYVRNLVRNEMD
As for B4, the binding entry in assay [10] and in [11] was “no binding” throughout.

The values are drawn from PMC3335097 (2012).
